In PubChem BioAssay AID485344 (National Center for Advancing Translational Sciences (NCATS), 2010):
About 6,900 (2%) of roughly 340,000 compounds were called active. Rule as the data show it: active = inhibition above about 30%; inactive = below that, where a call was filed. This is a selection; strong and weak results do not stand in their true shares. Entries without a call were filed so in the source.
Also: 0% is about no effect.

What follows are molecules tested against D(2) dopamine receptor (Homo sapiens) (UniProt P14416) (assay: HTS Assay for Allosteric Antagonists of the Human D2 Dopamine Receptor: Primary Screen for Antagonists). Conditions: HEK293 TREx D2 cells, calcium flux, dopamine EC80; at 10 µM; stronger effect = higher value.
Sequence of UniProt P14416 (P14416 whole entry, looked up): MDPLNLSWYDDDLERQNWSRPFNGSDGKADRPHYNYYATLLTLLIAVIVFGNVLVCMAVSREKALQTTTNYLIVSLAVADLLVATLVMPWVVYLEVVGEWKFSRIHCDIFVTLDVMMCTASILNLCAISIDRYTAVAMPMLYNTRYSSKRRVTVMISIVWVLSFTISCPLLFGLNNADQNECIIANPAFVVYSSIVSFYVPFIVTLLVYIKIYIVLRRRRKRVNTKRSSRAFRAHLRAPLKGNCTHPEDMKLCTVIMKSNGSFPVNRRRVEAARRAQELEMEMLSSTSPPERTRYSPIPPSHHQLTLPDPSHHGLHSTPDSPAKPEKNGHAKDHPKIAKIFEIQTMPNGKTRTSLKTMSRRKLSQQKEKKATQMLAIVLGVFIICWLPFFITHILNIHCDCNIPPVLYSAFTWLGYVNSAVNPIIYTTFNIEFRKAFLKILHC
How it was run: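 Cells plated overnight at 30 C with tetracycline; no-wash calcium dye, 30–90 min RT; 10 s baseline; compound pinned; 180 s read; EC80 dopamine added; another 180 s read.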
`Cc1cc2c(cc1S(=O)(=O)CCC(=O)N1CCC(C)CC1)OCC(=O)N2` gave an inhibition of 13.6%.
Work on `Cc1ccc(NC(=O)C(Cc2c[nH]c3ccccc23)NC(=O)OC(C)(C)C)c(C)c1` (stereo unspecified) yielded an inhibition of -22.8%.
`Cc1ccc(NC(=O)CSc2nnc3scc(-c4ccc(Cl)cc4)n23)cc1` gave an inhibition of 26.9%.
Molecule `COc1cccc(CNC(=O)C2CCC(CNS(=O)(=O)c3ccc4c(c3)CCCC(=O)N4)CC2)c1` (stereo unspecified) has an inhibition of -4.8%.
In the case of `CCN(CC)C(=O)Cn1c(=O)cc(C)c2c(C)nn(-c3cccc(Cl)c3C)c21`, the inhibition is reported as 10.6%.
Molecule `CCOC(=O)C1=C(CN2CCN(c3ccc(OC)cc3)CC2)NC(=O)NC1c1ccc(OC)cc1` (stereo unspecified) has an inhibition of -1.1%.
With `COc1cccc(OCC(O)CN2CCN(c3ncccn3)CC2)c1` (stereo unspecified) the inhibition was active: 69.1%.
`COc1ccc(NC(=O)Cn2cc(S(=O)(=O)N3CCN(c4ccccc4F)CC3)c3ccccc3c2=O)cc1Cl` was tested, and the inhibition was 10.6%.
With `CCn1c(SCC(=O)c2[nH]c(C)c(C(C)=O)c2C)nnc1-c1cccs1` the inhibition was active: 98.8%.
With `CCN(CC)CCCNc1oc(/C=C/c2ccc(OC)c(OC)c2)nc1C#N` the inhibition was 10.8%.
For `CCOc1ccc(-c2cc(C(=O)N3CCN(c4cc(Cl)ccc4C)CC3)c3ccccc3n2)cc1`, the inhibition was -25%.
`CNc1c(NC(=O)c2ccc(OC)c(OC)c2)c(=O)oc2ccccc12` gave an inhibition of 0.701%.
Work on `Cc1cc(C)c(Nc2nc3ccccc3n3c(C)nnc23)c(C)c1` yielded an inhibition of -11.4%.
`Brc1cccc(OCCN2CCCCC2)c1` was tested, and the inhibition was active: 47.5%.
`Cc1ccc(NC(=O)C(=O)NCC(c2cccnc2)N2CCN(Cc3ccccc3)CC2)cc1C` (stereo unspecified) showed an inhibition of -1.21%.
`COc1ccccc1OCCn1c(NC(=O)c2ccccc2Cl)nc2ccccc21` gave an inhibition of -18.8%.
`Cc1cc(Nc2ccccc2F)n2nc(-c3ccccc3)nc2n1` was tested, and the inhibition was -13.1%.
For `CCOC(=O)C1CCN(c2cc3c(cc2NC(=O)c2ccc(Cl)cc2)n(C)c(=O)n3C)CC1`, the inhibition was 8.11%.
`CCOc1ccc(Nc2oc(-c3ccc(COc4ccc(OC)cc4)o3)nc2C#N)cc1` showed an inhibition of 0.212%.
In the case of `COC(=O)c1ccc(Cl)cc1NC(=O)N1CC2CCCN2c2ccccc21` (stereo unspecified), the inhibition is reported as -6.52%.
In the case of `COc1ccc(S(=O)(=O)NCc2ccc3c(c2)CCN3C(=O)c2ccccc2)cc1OC`, the inhibition is reported as 5.16%.
With `Cn1c(=O)cc(SCC(=O)NCCCN2CCN(c3ccc(F)cc3)CC2)c2ccccc21` the inhibition was active: 90.6%.
With `COc1ccc(NC(=O)CN2C(=O)CCn3nc(-c4cccn4C)cc32)cc1` the inhibition was -3.65%.
Work on `COc1cccc(CNC(=O)c2cnc3c(-c4ccc(F)cc4)c(C)nn3c2C)c1` yielded an inhibition of 10.3%.
`CC(=O)Nc1ccc(NC(=O)c2nc(S(=O)(=O)Cc3ccc(F)cc3)ncc2Cl)cc1` showed an inhibition of -3.87%.
`CCc1ccc(C2C(C(=O)Nc3ccccc3OC)=C(C)Nc3c(C(=O)Nc4ccc(C)cc4)cnn32)cc1` (stereo unspecified) gave an inhibition of -4.83%.
